# From the supplement of paper PMC8728848
# This is one part of the list.
# Key:
# Assay in all cases: glycan array binding signal (z-score within array); higher = stronger binding
# Details in all cases: glycan notation: IUPAC condensed, linker removed; mutation: F63H
# [1] = molecular target: Fuc(a1-2)Gal
# How it was run: (§1)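 The Consortium for Functional Glycomics database supplied 3228 glycan arrays, of which those lacking an available protein sequence were dropped. The binding signal, a within-array Z-score, was averaged across arrays of the same protein sequence and across linkers. Negative scores can be read as non-binding.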
# [2] = molecular target: Fuc(a1-2)Gal(b1-3)GalNAc
# How it was run: as §1
# [3] = molecular target: Fuc(a1-2)Gal(b1-3)GalNAc(a1-3)[Fuc(a1-2)]Gal(b1-4)Glc
# How it was run: as §1
# [4] = molecular target: Fuc(a1-2)Gal(b1-3)GalNAc(a1-3)[Fuc(a1-2)]Gal(b1-4)GlcNAc
# How it was run: as §1
# [5] = molecular target: Fuc(a1-2)Gal(b1-3)GalNAc(b1-3)Gal
# How it was run: as §1
# [6] = molecular target: Fuc(a1-2)Gal(b1-3)GalNAc(b1-3)Gal(a1-4)Gal(b1-4)Glc
# How it was run: as §1
# [7] = molecular target: Fuc(a1-2)Gal(b1-3)GalNAc(b1-4)[Neu5Ac(a2-3)]Gal(b1-4)Glc
# How it was run: as §1
# [8] = molecular target: Fuc(a1-2)Gal(b1-3)GlcNAc
# How it was run: as §1
# [9] = molecular target: Fuc(a1-2)Gal(b1-3)GlcNAc(b1-2)Man(a1-3)[Fuc(a1-2)Gal(b1-3)GlcNAc(b1-2)Man(a1-6)]Man(b1-4)GlcNAc(b1-4)GlcNAc
# How it was run: as §1
# [10] = molecular target: Fuc(a1-2)Gal(b1-3)GlcNAc(b1-2)Man(a1-3)[Fuc(a1-2)Gal(b1-3)GlcNAc(b1-2)Man(a1-6)]Man(b1-4)GlcNAc(b1-4)[Fuc(a1-6)]GlcNAc
# How it was run: as §1
# [11] = molecular target: Fuc(a1-2)Gal(b1-3)GlcNAc(b1-3)Gal(b1-4)Glc
# How it was run: as §1
# [12] = molecular target: Fuc(a1-2)Gal(b1-3)GlcNAc(b1-3)GalNAc
# How it was run: as §1
# [13] = molecular target: Fuc(a1-2)Gal(b1-3)GlcNAc(b1-3)[Fuc(a1-2)Gal(b1-3)GlcNAc(b1-6)]GalNAc
# How it was run: as §1
# [14] = molecular target: Fuc(a1-2)Gal(b1-3)GlcNAc(b1-3)[Gal(b1-4)GlcNAc(b1-6)]Gal(b1-4)Glc
# How it was run: as §1
# [15] = molecular target: Fuc(a1-2)Gal(b1-3)GlcNAc(b1-3)[Neu5Ac(a2-6)Gal(b1-4)GlcNAc(b1-6)]Gal(b1-4)Glc
# How it was run: as §1
# [16] = molecular target: Fuc(a1-2)Gal(b1-3)GlcNAc6S
# How it was run: as §1
# [17] = molecular target: Fuc(a1-2)Gal(b1-3)[Fuc(a1-4)]GlcNAc
# How it was run: as §1
# [18] = molecular target: Fuc(a1-2)Gal(b1-3)[Fuc(a1-4)]GlcNAc(b1-2)Man(a1-3)[Fuc(a1-2)Gal(b1-3)[Fuc(a1-4)]GlcNAc(b1-2)Man(a1-3)]Man(b1-4)GlcNAc(b1-4)GlcNAc
# How it was run: as §1
# [19] = molecular target: Fuc(a1-2)Gal(b1-3)[Fuc(a1-4)]GlcNAc(b1-2)Man(a1-3)[Fuc(a1-2)Gal(b1-3)[Fuc(a1-4)]GlcNAc(b1-2)Man(a1-6)]Man(b1-4)GlcNAc(b1-4)[Fuc(a1-6)]GlcNAc(b1-4)[Fuc(a1-6)]GlcNAc
# How it was run: as §1
# [20] = molecular target: Fuc(a1-2)Gal(b1-3)[Fuc(a1-4)]GlcNAc(b1-3)[Fuc(a1-3)[Gal(b1-4)]GlcNAc(b1-6)]Gal(b1-4)Glc
# How it was run: as §1
# [21] = molecular target: Fuc(a1-2)Gal(b1-3)[Fuc(a1-4)]GlcNAc(b1-3)[Gal(b1-4)GlcNAc(b1-6)]Gal(b1-4)Glc
# How it was run: as §1
# [22] = molecular target: Fuc(a1-2)Gal(b1-4)Fuc(a1-3)]GlcNAc(b1-2)Man(a1-3)[Fuc(a1-2)Gal(b1-4)[Fuc(a1-3)]GlcNAc(b1-2)Man(a1-6)]Man(b1-4)GlcNAc(b1-4)GlcNAc
# How it was run: as §1
# [23] = molecular target: Fuc(a1-2)Gal(b1-4)Glc
# How it was run: as §1
# [24] = molecular target: Fuc(a1-2)Gal(b1-4)Glc6S
# How it was run: as §1
# [25] = molecular target: Fuc(a1-2)Gal(b1-4)GlcNAc
# How it was run: as §1
# [26] = molecular target: Fuc(a1-2)Gal(b1-4)GlcNAc(b1-2)Man
# How it was run: as §1
# [27] = molecular target: Fuc(a1-2)Gal(b1-4)GlcNAc(b1-2)Man(a1-3)[Fuc(a1-2)Gal(b1-4)GlcNAc(b1-2)Man(a1-6)]Man(b1-4)GlcNAc(b1-4)GlcNAc
# How it was run: as §1
# [28] = molecular target: Fuc(a1-2)Gal(b1-4)GlcNAc(b1-2)Man(a1-3)[Fuc(a1-2)Gal(b1-4)GlcNAc(b1-2)Man(a1-6)]Man(b1-4)GlcNAc(b1-4)[Fuc(a1-6)]GlcNAc
# How it was run: as §1
# [29] = molecular target: Fuc(a1-2)Gal(b1-4)GlcNAc(b1-2)[Fuc(a1-2)Gal(b1-4)GlcNAc(b1-4)]Man(a1-3)[Fuc(a1-2)Gal(b1-4)GlcNAc(b1-2)Man(a1-6)]Man(b1-4)GlcNAc(b1-4)GlcNAc
# How it was run: as §1
# [30] = molecular target: Fuc(a1-2)Gal(b1-4)GlcNAc(b1-3)Gal(b1-4)GlcNAc
# How it was run: as §1
# [31] = molecular target: Fuc(a1-2)Gal(b1-4)GlcNAc(b1-3)Gal(b1-4)GlcNAc(b1-2)Man(a1-3)[Fuc(a1-2)Gal(b1-4)GlcNAc(b1-3)Gal(b1-4)GlcNAc(b1-2)Man(a1-6)]Man(b1-4)GlcNAc(b1-4)GlcNAc
# How it was run: as §1
# [32] = molecular target: Fuc(a1-2)Gal(b1-4)GlcNAc(b1-3)Gal(b1-4)GlcNAc(b1-3)Gal(b1-4)GlcNAc
# How it was run: as §1
# [33] = molecular target: Fuc(a1-2)Gal(b1-4)GlcNAc(b1-3)GalNAc
# How it was run: as §1
# [34] = molecular target: Fuc(a1-2)Gal(b1-4)GlcNAc(b1-3)[Fuc(a1-2)Gal(b1-4)GlcNAc(b1-6)]GalNAc
# How it was run: as §1
# [35] = molecular target: Fuc(a1-2)Gal(b1-4)GlcNAc(b1-3)[Fuc(a1-3)[Gal(b1-4)]GlcNAc(b1-6)]Gal(b1-4)Glc
# How it was run: as §1
# [36] = molecular target: Fuc(a1-2)Gal(b1-4)GlcNAc(b1-6)GalNAc
# How it was run: as §1
# [37] = molecular target: Fuc(a1-2)Gal(b1-4)GlcNAc6S
# How it was run: as §1
binder,measurement,setting,value
"AAL (Agrocybe aegerita), Q6WY08 (protein) MQGVNIYNISAGTSVDLAAPVTTGDIVTFFSSALNLNAGAGNPNNTTLNLFAENGAYLLHIAHRLQENVIIFNSRQPDGPWLVEQRVSDVANQFAGIDGKAMVTVFDHGDKYQVVINEKTVIQYTKQISGLTLSLSYNATEETSIFSTVVEAVTYTGLALEHHHHHH",glycan array binding signal (z-score),[1],-0.139
same,glycan array binding signal (z-score),[2],-0.198
same,glycan array binding signal (z-score),[3],-0.013
same,glycan array binding signal (z-score),[4],-0.252
same,glycan array binding signal (z-score),[5],0.092
same,glycan array binding signal (z-score),[6],-0.075
same,glycan array binding signal (z-score),[7],0.857
same,glycan array binding signal (z-score),[8],-0.083
same,glycan array binding signal (z-score),[9],0.176
same,glycan array binding signal (z-score),[10],-0.225
same,glycan array binding signal (z-score),[11],-0.394
same,glycan array binding signal (z-score),[12],0.099
same,glycan array binding signal (z-score),[13],0.456
same,glycan array binding signal (z-score),[14],-0.05
same,glycan array binding signal (z-score),[15],0.013
same,glycan array binding signal (z-score),[16],0.045
same,glycan array binding signal (z-score),[17],-0.413
same,glycan array binding signal (z-score),[18],0.03
same,glycan array binding signal (z-score),[19],0.129
same,glycan array binding signal (z-score),[20],0.734
same,glycan array binding signal (z-score),[21],0.22
same,glycan array binding signal (z-score),[22],0.548
same,glycan array binding signal (z-score),[23],-0.144
same,glycan array binding signal (z-score),[24],-0.133
same,glycan array binding signal (z-score),[25],-0.308
same,glycan array binding signal (z-score),[26],-0.262
same,glycan array binding signal (z-score),[27],0.43
same,glycan array binding signal (z-score),[28],-0.137
same,glycan array binding signal (z-score),[29],-0.02
same,glycan array binding signal (z-score),[30],-0.502
same,glycan array binding signal (z-score),[31],0.258
same,glycan array binding signal (z-score),[32],-0.151
same,glycan array binding signal (z-score),[33],0.093
same,glycan array binding signal (z-score),[34],-0.28
same,glycan array binding signal (z-score),[35],-0.347
same,glycan array binding signal (z-score),[36],0.148
same,glycan array binding signal (z-score),[37],-0.578
